Measurements reported in PubChem BioAssay AID652104 (National Center for Advancing Translational Sciences (NCATS), 2013).
Hit rate of the full screen: of about 410,000 compounds, about 7,200 (1.8%) were called active. Inconclusive results, whose numbers are uncertain, are shown with a selection of clear calls. The call rests on the fitted dose curve; in most records, active means well fitted activation curve with a large enough effect; inconclusive means small, poorly fitted or top-dose-only effect, or another doubt; inactive means no such curve, though single readings can be large or run the other way. Potencies of inconclusive entries are left out as doubtful fits.

assay: qHTS of TDP-43 Inhibitors; conditions: TDP-43 expressing yeast growth rescue, BacTiter-Glo, 24 h; growth rescue (activation): at 46.1 µM (top of the series) unless noted; further: nearly all actives have a fitted effect of over 50% in size; on growth rescue (activation): % of control where 0% means no effect
In short: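 Cell-based yeast growth screen: TDP-43 expression induced in galactose, inoculum OD600=0.02 after raffinose pregrowth to mid-log. Read-out BacTiter-Glo luminescence at 24 hr, 30 deg C; inhibition of toxicity seen as signal increase.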
Potency means the concentration at half of the fitted maximal effect; tags describe the fitted curve by direction and shape.

| Compound | growth rescue (activation) | Potency |
| --- | --- | --- |
| Cc1cccc(C(CC(=O)NCC2(c3ccccc3)CCCC2)c2ccccc2)c1O (configuration not stated) | inactive: 1.56% | – |
| CN(c1ccc(Cl)cc1)c1cc(=O)n(C)c2ccccc12 | – | active: 15.8 µM |
| O=C(O)c1cccc(-c2csc(C(O)c3ccccc3)n2)c1 (configuration not stated) | – | inconclusive [activator, full curve, poor fit] |
| CC1CCCN(S(=O)(=O)c2ccc(C(=O)Nc3nnc(C4CC4)o3)cc2)C1 (configuration not stated) | – | inconclusive [activator, single point] |
| CCCCC12CN3CC(C)(CN(C1)C3c1c(C)[nH]c(=O)[nH]c1=O)C2=O (configuration not stated) | inactive: 12.8% | – |
| CCOc1ccc(NC(=O)CN2C(=O)C(c3ccccc3)=NC23CCCCCC3)cc1 | inactive: 16.4% | – |
| CC1CCC2(CC1)SCC(=O)N2c1ccc(F)cc1 (configuration not stated) | – | inconclusive [activator, single point] |
| CC(C)Cc1nn2c(=O)cc(COC(=O)c3ccccc3NC(=O)c3ccccc3)nc2s1 | inactive: -11.6% | – |
| CC(=O)NC(c1ccccc1)c1nc(-c2ccccc2)cs1 (configuration not stated) | – | inconclusive [activator, full curve] |
| COC(=O)NC(=S)Nc1ccc(Oc2ccc(Cl)cc2Cl)c(Cl)c1 | – | active: 17.8 µM |
| O=C(Nc1nnc(COc2ccc(Cl)cc2)s1)c1ccco1 | inconclusive: -91% [activator] | – |
| N/C(=N\OC(=O)c1ccccc1Br)c1cccc([N+](=O)[O-])c1 | inconclusive: -45.1% [activator] | – |
| OCCn1nc(-c2ccccc2)cc1-c1ccccc1 | – | inconclusive [activator, partial curve] |
| COc1cc(-c2cc3nc(NCc4cccs4)ccn3n2)cc(OC)c1OC | – | active: 35.5 µM |
| Cc1oc2cc(O)ccc2c(=O)c1-c1nncn1-c1ccccc1 | inactive: -19.7% [at 9.22 µM] | – |
| N/C(Cc1cccs1)=N\OC(=O)COc1ccccc1 | – | inconclusive [activator, partial curve] |
| O=C(CCCn1c(=O)[nH]c2cc(Cl)ccc2c1=O)NCCCN1CCCC1=O | – | inconclusive [activator, single point] |
| Cc1ccc(-c2nc3c4cnn(-c5cc(Cl)ccc5Cl)c4ncn3n2)cc1 | – | inconclusive [activator, full curve, poor fit] |
| CCc1ccc(-n2c(C)nc3cc(C(=O)NCCc4ccccc4)ccc32)cc1 | inactive: 16% | – |
| CCCCCC(=O)NNC(=O)Cc1ccc([N+](=O)[O-])cc1 | inactive: 9.81% | – |
| O=C(Nc1cccnc1)C1Cc2c(-c3ccc4c(c3)OCO4)ccnc2O1 (configuration not stated) | inactive: -49.2% | – |
| O=C(c1ccncc1)N1N=C(c2ccc(Cl)cc2)CC1c1ccccc1O (configuration not stated) | inactive: 23.9% | – |
